Drawing on PubChem BioAssay (NCI), this text covers GI50 and TGI for two compounds.

The experiment has as its system NCI-H322M lung. As to the kind of experiment: inhibition of tumour cell growth, NCI panel, 48 h.

Structures are written as SMILES.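 In this assay, cells in 96-well plates receive the compound at five concentrations for 48 hours. Endpoints are linearly interpolated between the surrounding concentrations. The concentration for 50% growth inhibition is given as GI50. TGI: total growth inhibition.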

On to `NC(N)=Nc1ccc(Oc2ccc(Nc3ccc(Cl)c(C(F)(F)F)c3)cc2)cc1`, for which the GI50 was 1.68 µM and the TGI stood at 3.29 µM.
Regarding `CC(C)(C)c1ccc(C(=O)Nc2sc3c(c2C(N)=O)CC/C(=N\O)C3)cc1`, the GI50 is 5.96 µM and the TGI was determined as 25.2 µM.
